Source: PubChem BioAssay (NCI)
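Interpolation was linear, between the two tested concentrations surrounding the appropriate level; five concentrations were tested over 48 hours in 96-well plates. Here, GI50 denotes the concentration required for 50% inhibition of growth. The concentration for full growth arrest is given as TGI.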

System: NCI-H322M lung
Assay: DTP human tumour cell line panel, 48 h

| SMILES | TGI | GI50 |
| --- | --- | --- |
| Cc1ccc([N+](=O)[O-])cc1S(=O)(=O)Nc1ccc(C2=NOC(c3ccco3)C2)cc1 (configuration not stated) | 66.4 µM | – |
| Cc1nnn[n-]1.N.N.N.N.N.[Cl-].[Co+3] | > 100 µM | > 100 µM |
| COC(=O)C(Cc1ccccc1)NP(=O)(O)OCC1OC(n2cc(Br)c(=O)[nH]c2=O)CC1O (configuration not stated) | > 100 µM | – |
| COC(=O)CC1C[C@H](C#N)N(C(=O)c2ccccc2)C[C@@H]1CC[N+](=O)[O-] (some centres not stated) | > 100 µM | – |
| O=C(c1ccccc1)c1ccccc1-c1ccccc1 | > 100 µM | 9.33 µM |
| CN1C2=C(CC3=C1CC(C)(C)CC3=O)C(=O)CC(C)(C)C2 | > 100 µM | – |
| Cc1cccc(/C=C/c2c(C(=O)/C=C/c3ccccc3)c(C)nc3ccccc23)c1 | 2.92 µM | 1.53 µM |
| O=[N+]([O-])C(=C(Nc1ccccc1)Nc1ccccc1)/C(Cl)=C(\Cl)[N+](=O)[O-] | 28.1 µM | – |
| CN(Cc1ccccc1)C(=NC#N)N(Cc1ccccc1)Cc1ccccc1 | > 100 µM | – |
| Cc1cc2c(cc1Cl)SC(NNC(=O)c1ccco1)=NS2(=O)=O | > 10 µM | – |
| O=C(NCCCCNc1cccccc1=O)OCc1ccccc1 | > 100 µM | – |
| CC1=C(c2ccccc2)C(c2ccccc2)=C(c2ccccc2)C2(c3ccccc3)C(=O)C(C)CN12 (configuration not stated) | > 100 µM | – |
| Clc1nc(Cl)c2ncn(CC3(Cn4cnc5c(Cl)nc(Cl)nc54)COC3)c2n1 | 2.77 µM | 1.45 µM |
| NCCCOc1ccc([N+](=O)[O-])cc1Cl | > 100 µM | – |
| Fc1ccc(C(OCCN2CCN(CCCCl)CC2)c2ccc(F)cc2)cc1 | > 100 µM | – |
| C=C1C(=O)O[C@H]2[C@H]1CC/C(COC(=O)CSCSCC(=O)OC/C1=C/CC[C@@]3(C)O[C@H]3[C@H]3OC(=O)C(=C)[C@@H]3CC1)=C\CC[C@@]1(C)O[C@@H]21 | 10.5 µM | 3.26 µM |
| OC1c2ccccc2CC12Cc1ccccc1C2 (configuration not stated) | > 100 µM | – |
